Experimental data as given in patent publication US20140294837A1 (SAMSUNG ELECTRONICS, published 2014).

Molecular target: c-Met on cells (MKN45, Caki-1, NCI-H441, HUVEC) (human, UniProt P08581)
Experiment: cell-based or functional assay

UniProt P08581, sequence (P08581 25-1390): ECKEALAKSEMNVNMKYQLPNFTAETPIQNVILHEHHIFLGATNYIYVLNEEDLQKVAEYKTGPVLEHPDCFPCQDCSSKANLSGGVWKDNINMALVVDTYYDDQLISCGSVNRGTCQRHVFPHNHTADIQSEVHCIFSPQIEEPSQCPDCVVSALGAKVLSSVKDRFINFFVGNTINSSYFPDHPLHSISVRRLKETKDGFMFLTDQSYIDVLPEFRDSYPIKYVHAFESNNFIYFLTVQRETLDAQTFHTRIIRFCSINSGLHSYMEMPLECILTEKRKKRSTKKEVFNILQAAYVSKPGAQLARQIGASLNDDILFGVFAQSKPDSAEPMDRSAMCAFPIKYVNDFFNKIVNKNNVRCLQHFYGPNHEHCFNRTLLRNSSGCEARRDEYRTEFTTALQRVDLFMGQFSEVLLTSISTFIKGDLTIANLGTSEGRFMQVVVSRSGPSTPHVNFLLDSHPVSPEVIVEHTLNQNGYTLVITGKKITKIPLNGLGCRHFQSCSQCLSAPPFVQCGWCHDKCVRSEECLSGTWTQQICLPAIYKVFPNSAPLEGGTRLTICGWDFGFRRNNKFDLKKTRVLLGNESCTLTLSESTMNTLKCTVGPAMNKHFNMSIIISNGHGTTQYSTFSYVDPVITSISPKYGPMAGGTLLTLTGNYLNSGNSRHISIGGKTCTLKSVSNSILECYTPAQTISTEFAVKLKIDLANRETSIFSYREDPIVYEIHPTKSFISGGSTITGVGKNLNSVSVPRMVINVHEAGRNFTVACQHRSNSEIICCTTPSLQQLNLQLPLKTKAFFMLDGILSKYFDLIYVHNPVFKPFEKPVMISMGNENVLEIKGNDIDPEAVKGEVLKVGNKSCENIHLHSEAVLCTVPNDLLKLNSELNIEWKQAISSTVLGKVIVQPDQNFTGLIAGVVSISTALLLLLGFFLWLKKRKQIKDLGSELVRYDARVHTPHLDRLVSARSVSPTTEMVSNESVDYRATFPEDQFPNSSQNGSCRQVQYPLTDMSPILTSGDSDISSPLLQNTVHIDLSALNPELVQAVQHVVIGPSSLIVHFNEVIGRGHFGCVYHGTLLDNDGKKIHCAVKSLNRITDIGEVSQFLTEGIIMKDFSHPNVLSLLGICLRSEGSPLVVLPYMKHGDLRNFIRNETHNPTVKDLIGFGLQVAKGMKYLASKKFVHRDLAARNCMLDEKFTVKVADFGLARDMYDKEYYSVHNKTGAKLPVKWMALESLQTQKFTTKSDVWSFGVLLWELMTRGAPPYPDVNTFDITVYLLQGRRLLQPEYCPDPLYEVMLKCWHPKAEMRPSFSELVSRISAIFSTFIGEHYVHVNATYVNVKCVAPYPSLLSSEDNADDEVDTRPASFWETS

c-Met degradation ability (total c-Met ELISA, method of Example 2.2): 81.9%
B1: Ab2-VIG2 (bispecific antibody)
heavy: QVQLVQSGAEVKKPGASVKVSCKASGYIFTAYTMHWVRQAPGQGLDWMGGIKPNNGLANYAQKFQGRVTMTVDKSISTAYMELSRLRSDDTAVYYCARSEITTEFDYWGQGTLVTVSSASTKGPSVFPLAPSSKSTSGGTAALGCLVKDYFPEPVTVSWNSGALTSGVHTFPAVLQSSGLYSLSSVVTVPSSSLGTQTYICNVNHKPSNTKVDKKVEPKSCDCH[human IgG1 Fc omitted here]GGGGSGGGGSSDTGRPFVEMYSEIPEIIHMTEGRELVIPCRVTSPNITVTLKKFPLDTLIPDGKRIIWDSRKGFIISNATYKEIGLLTCEATVNGHLYKTNYLTHRQTNTI
light: DIVLTQSPDSLAVSLGERATINCRSSESVDSYANSFMHWYQQKPGQPPKLLIYRASTRESGVPDRFSGSGSRTDFTLTISSLQAEDVAVYYCQQSKEDPLTFGGGTKVEIKRTVAAPSVFIFPPSDEQLKSGTASVVCLLNNFYPREAKVQWKVDNALQSGNSQESVTEQDSKDSTYSLSSTLTLSKADYEKHKVYACEVTHQGLSSPVTKSFNRGEC
